Test results published in paper PMC12040169 (PLOS Biology, 2025).
Some of the results follow.

These compounds were tested on T1, C. trachomatis L2/434/Bu expressing GFP (CTL2-GFP). Details: total inclusion area; 28.5 h, 10 µM; inhibitor.
T1 construct: L2/434/Bu GFP intracellular growth in HeLa cells
Set-up: species or system HeLa; C. trachomatis total inclusion area by high-content imaging, normalised to DMSO
Method in brief: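 Following bulk GFP and resorufin fluorescence reads, infected cells were fixed, Hoechst-stained and imaged on a high-content platform. Inclusion total area and number per well served as growth proxies; nuclei counts indicated host viability. MICs were derived as for the fluorescence assay.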

Compound | % of control remaining
COc1cc(NC(=O)Cn2nc([N+](=O)[O-])c(Cl)c2C)c(OC)cc1Cl [CBK033535] | 82.8481
COc1ccc2c(c1)C(=O)NC1(CC2)CCN(Cc2ccccc2)C1 (stereo not shown) [CBK283343] | 118.728
O=C(Cn1ccc(=O)[nH]c1=O)NCc1cccnc1-n1cccn1 [CBK305705] | 46.5249
Cc1c(Br)c(C(F)(F)F)nn1CC(=O)N1CCCC1 [CBK071473] | 111.001
COc1ccc([C@@]23CC[C@@H](NC(=O)c4ccc(C(F)(F)F)cc4F)C[C@@H]2N(C)CC3)cc1OC [CBK073976T] | 42.4542
O=C(c1ccc2c(c1)OCO2)N1CCN(C/C=C/c2ccccc2)CC1 [CBK262639] | 111.615
CCc1noc(C)c1C(=O)NC(C)c1cc2ccccc2o1 (stereo not shown) [CBK247065] | 94.7939
COc1ccc(CNc2cc(-c3cccc(Cl)c3)nc3ccnn23)cc1 [CBK037037] | 99.7883
Cc1c(CN(C)CC2CCN(C)C2)cnn1Cc1ccccc1 (stereo not shown) [CBK282616] | 124.186
COc1cc(C2SCC(=O)Nc3c2c(-c2ccccc2)nn3-c2ccccc2)cc(OC)c1OC (stereo not shown) [CBK265025] | 114.004
CCCC/C=C/c1nccnc1NCc1ccco1 [CBK037116] | 98.0432
O=c1[nH]c(CNc2ccccc2)nc2ccccc12 [CBK288038] | 97.9179
CC(C)Nc1cccnc1N1CCN(C(=O)c2cc3cc(NC(=O)N4CCOCC4)ccc3[nH]2)CC1 [CBK007872] | 153.425
NC(=S)N/N=C/c1c[nH]nc1-c1ccccc1 [CBK009705] | 71.7465
CN(Cc1ccc(Br)cc1Cl)C(=O)c1cn[nH]c1C1CCNC1 (stereo not shown) [CBK304785] | 97.111
O=C(O)/C=C/c1cn([C@@H]2O[C@H](CO)[C@H](O)C2O)c(=O)[nH]c1=O (stereo partly shown) [CBK201270] | 116.749
COCCn1c(CO)nnc1[C@H]1C[C@@H](NC(=O)c2cc(C)ccc2Cl)C1 [CBK306564] | 86.5373
CC(CCc1ccccc1)NC(=O)c1ccccc1C(=O)O (stereo not shown) [CBK286940] | 86.2131
CCn1c2ccccc2n2c(SCC(=O)O)nnc12 [CBK266869] | 94.6712
CN1CCN(C(C(=O)O)c2cn(CCC(=O)O)c3ccc(Br)cc23)CC1 (stereo not shown) [CBK286698] | 64.7227
CSc1ccc(CNC(=O)c2ccc(Cl)cc2)s1 [CBK057705] | 94.2452
O=C(c1nccs1)C1CCN(C(=O)Cc2ccsc2)CC1 [CBK284176] | 83.3791
Cc1nn(C)c(Cl)c1S(=O)(=O)N1CCN(C)CC1 [CBK062426] | 112.868
COc1ccc(NC(=O)N2CC[C@H]3CC(=O)N(CCN4CCNC4=O)CC[C@H]3C2)cc1 [CBK288797] | 113.603
COc1ccc(C(=O)Nc2ccc(S(=O)(=O)N3CCN(C)CC3)cc2)cc1[N+](=O)[O-] [CBK268140] | 101.428
CCOC(=O)c1cc2cc(NC(=O)N(CCO)C3CC3)ccc2s1 [CBK306007] | 97.4725
CN(C)CCSc1cncc(N2CCCC2)n1 [CBK105294] | 101.986

Compound | % of control remaining
NC(=O)COc1ccc(C2CC(=O)Nc3c(-c4cccc(F)c4)csc32)cc1 (stereo not shown) [CBK294441] | 93.0413
COCc1ccc(CN2CCC3(CCc4ccccc4C(=O)N3)C2)o1 (stereo not shown) [CBK284651] | 81.2383
Cc1cc(CNC(=O)N2CCN(CCc3ccccc3)CC2)no1 [CBK158898] | 101.9
CN(C)c1ccccc1C1(O)CN2CCC1CC2 (stereo not shown) [CBK022620] | 91.7435
COc1ccc(C2CCN(Cc3cccnc3)CC2)cc1 [CBK283564] | 96.8469
CCCCOc1ccc(C(N)CC(=O)O)cc1 (stereo not shown) [CBK262915] | 107.746
O=C(O)CC/C(=N\Nc1ccc([N+](=O)[O-])cc1)c1ccc(F)cc1 [CBK017075] | 104.373
CN1CCN(CCCNC(=O)N(C)C2CCN(C)C2)CC1 (stereo not shown) [CBK155993] | 93.9401
Cc1ccc(-c2cc(-c3ccccc3O)nc(N/N=C/c3cccnc3)n2)cc1 [CBK262308] | 96.8351
Fc1ccc(CN2CCC(n3cnc4cccnc43)CC2)cc1 [CBK283580] | 77.3442
Nn1c(S)nnc1Cn1nnc2ccccc21 [CBK268233] | 93.6898
O=C(c1ccc(F)cc1)N1C[C@@H]2C[C@H](C1)c1ccc(-c3cncnc3)c(=O)n1C2 [CBK289185] | 92.1562
O=C(CN1CCOCC1)N1CCN(C(=O)c2ccc(C(F)(F)F)cc2)C1 [CBK051555C] | 66.6391
O=C(Nc1ccccc1)N1Cc2nc[nH]c2C[C@H]1c1nc(-c2ccccc2)no1 [CBK288997] | 79.1114
CN1C(=S)SC(C)(N(O)C(=O)NC2CCCCC2)C1(C)C (stereo not shown) [CBK008916] | 12.7002
Cc1cc(N2CCN(C(=O)CCc3ccsc3)CC2)nc(C(C)C)n1 [CBK305710] | 87.5781
CNC(=O)Cn1nc(C)c2cnn(-c3ccccc3)c2c1=O [CBK287669] | 120.664
CCN(CC)C(=O)c1sc2ncccc2c1NS(=O)(=O)Cc1ccccc1[N+](=O)[O-] [CBK050022] | 104.132
CC1CCCN(CC(C)(C)NC(=O)c2cc(C(F)(F)F)nn2C)C1 (stereo not shown) [CBK281598] | 128.08
COc1ccccc1-c1nccnc1NCc1ccc(C(F)(F)F)cc1 [CBK036788] | 115.586
CCC(C(=O)Nc1sc2c(c1C(N)=O)CCCCCC2)c1ccccc1 (stereo not shown) [CBK265383] | 91.7292
CC(=O)Nc1ccc(-c2ccc(COC3CCN(C(=O)Cc4ccc(Cl)cc4)CC3)cc2)cc1 [CBK149218] | 93.2968
Cc1cc(C(=O)CSc2nnc(-c3ccccc3F)n2CC(C)C)c(C)[nH]1 [CBK297877] | 135.775
O=C(CN1CCCC1=O)N1CCN(C(=O)c2ccc(Br)o2)CC1 [CBK034530] | 32.6368
N#Cc1c(-c2ccccc2)noc1C/C=N/O [CBK007357] | 82.1327
Cc1cc(C)nc(Nc2n[nH]c(-c3ccc(NC(=O)Nc4ccccc4)cc3)n2)n1 [CBK267076] | 93.6855
O=C(O)c1cc(NS(=O)(=O)c2ccc([N+](=O)[O-])cc2)ccc1O [CBK296077] | 51.7256

Compound | % of control remaining
CCN(CC)C(=O)C1CCCN(C(=O)Nc2ccc3[nH]ccc3c2)C1 (stereo not shown) [CBK156133] | 104.599
CSCCN1CCN(c2nccnc2OCC2COc3ccccc3O2)CC1 (stereo not shown) [CBK082806T] | 84.0141
Cn1cc(CN2CCCC(c3cccc(Cc4ccc(Cl)cc4)n3)C2)cn1 (stereo not shown) [CBK286242] | 60.8188
C#CCNS(=O)(=O)c1cccc(C(=O)NC2CCOc3ccccc32)c1 (stereo not shown) [CBK305430] | 63.2429
Nc1nc(N)c([C@H]2C[C@@H](O)[C@@H](CO)O2)nc1Cl [CBK201326] | 109.525
CCN(CC)C(=O)c1ccc(NC(=O)CSc2n[nH]c(=O)n2CC2CCCO2)cc1 (stereo not shown) [CBK295186] | 82.8454
CN1CCN(c2cc(NCC(c3cccnc3)N(C)C)nc3ccnn23)CC1 (stereo not shown) [CBK037157] | 81.6472
Cc1nn(C)c(Cl)c1CN1CCCC(CCC(=O)N2CCN(C)CC2)C1 (stereo not shown) [CBK307716] | 41.3258
O=C(O)CCCC(=O)NNC(=O)c1cccc(Br)c1 [CBK263530] | 109.782
Cc1nc(CN2C(=O)CC3(C2=O)C(=O)N(CCCCOc2ccccc2)c2ccccc23)cs1 (stereo not shown) [CBK076103] | 115.789
O=C(c1ccco1)N1CCN(c2cncc(-c3cc4ccccc4o3)n2)CC1 [CBK066044] | 85.9859
CCOc1cc(/C=C/c2ccc3cccc(O)c3n2)cc(Br)c1O [CBK264451] | 108.362
c1ccc(Oc2cccc(CN3CCN(c4ccccn4)CC3)c2)cc1 [CBK261523] | 97.8262
CN1CCCc2ccc(S(=O)(=O)NCCc3cn4ccccc4n3)cc21 [CBK306170] | 64.8009
Cc1cc(C)nc(SCC(=O)N/N=C2/C(=O)Nc3ccccc32)n1 [CBK262883] | 80.2526
N#Cc1c(C(F)(F)F)cc(-c2ccncc2)nc1SCCN1CCCCCC1 [CBK267451] | 101.326
Cc1cc(C(=O)Cn2nc(C(=O)O)c3ccccc3c2=O)c(C)n1Cc1ccccc1Cl [CBK297504] | 69.805
N#Cc1ccc(-c2cnc(NC(=O)C(F)(F)F)c(-c3ccc(C(=O)N4CCOCC4)cc3)n2)cc1 [CBK093819] | 101.239
COc1cc(CNc2nc(Br)cn3ccnc23)cc(OC)c1OC [CBK038060] | 101.937
Cc1ccc(OC2(C(=O)N3CCCC3c3nccs3)CCNCC2)cc1 (stereo not shown) [CBK307539] | 61.4479
Cc1cc(C)c2c(CC(=O)NNC(=O)COc3ccccc3)coc2c1 [CBK269169] | 121.495
CN(C)CCNCc1ccc(-c2cccc(C(=O)O)c2)o1 [CBK287250] | 105.552
CC(C)n1ncc2c1NC(=O)CC2c1ccc2c(c1)n(C)c(=O)n2C (stereo not shown) [CBK287926] | 41.5637
CN1CCCc2ccc(S(=O)(=O)Nc3nc4ncccn4n3)cc21 [CBK305226] | 103.294
O=C(Nc1ccc(OC(F)(F)F)cc1)c1nn(-c2ncccn2)c2ccccc12 [CBK048510] | 122.257
